Assay results published in a collection of fitness landscapes (doi:10.1126/science.1257360).
The list shows a part of the results.

B1: PhoQ; a variant is named by its letters at X, in order, P23837 (parent)
chain: MKKLLRLFFPLSLRVRFLLATAAVVLVLSLAYGMVALIGYSVSFDKTTFRLLRGESNLFYTLAKWENNKLHVELPENIDKQSPTMTLIYDENGQLLWAQRDVPWLMKMIQPDWLKSNGFHEIEADVNDTSLLLSGDHSIQQQLQEVREDDDDAEMTHSVAVNVYPATSRMPKLTIVVVDTIPVELKSSYMVWSWFIYVLSANLLLVIPLLWVAAWWSLRPIEALAKEVRELEEHNRELLNPATTRELTSLVRNLNRLLKSERERYDKYRTTLTDLTHSLKTPLXXLQXXLRSLRSEKMSVSDAEPVMLEQISRISQQIGYYLHRASMRGGTLLSRELHPVAPLLDNLTSALNKVYQRKGVNISLDISPEISFVGEQNDFVEVMGNVLDNACKYCLEFVEISARQTDEHLYIVVEDDGPGIPLSKREVIFDRGQRVDTLRPGQGVGLAVAREITEQYEGKIVAGESMLGGARMEVIFGRQHSAPKDE

Variants of: B1
Experiment: enrichment ratio after two sorts for PhoP signalling (ratio (wild type AVST 3.29)); higher = more functional
Details: with PhoP (E. coli)

| Variant | enrichment ratio |
| --- | --- |
| MYRR | ≤ 0.25 |
| EHLL | ≤ 0.25 |
| YHTV | ≤ 0.25 |
| GSHG | ≤ 0.25 |
| AWKV | ≤ 0.25 |
| WSLF | ≤ 0.25 |
| VAPK | ≤ 0.25 |
| FIWA | ≤ 0.25 |
| MRYW | ≤ 0.25 |
| VKGT | ≤ 0.25 |
| IKHY | ≤ 0.25 |
| TGDL | ≤ 0.25 |
| LDNH | ≤ 0.25 |
| KEWV | ≤ 0.25 |
| RDTP | ≤ 0.25 |
| WSRR | ≤ 0.25 |
| YFGA | ≤ 0.25 |
| NQNV | ≤ 0.25 |
| QVIY | ≤ 0.25 |
| PGNV | ≤ 0.25 |
| KFMD | ≤ 0.25 |
| AVLW | ≤ 0.25 |
| IGRS | ≤ 0.25 |
| THRP | ≤ 0.25 |
| KLSG | ≤ 0.25 |
| KKLK | ≤ 0.25 |

| Variant | enrichment ratio |
| --- | --- |
| IAEH | ≤ 0.25 |
| NTNK | ≤ 0.25 |
| NYLN | ≤ 0.25 |
| LMEF | ≤ 0.25 |
| LATC | ≤ 0.25 |
| KEFG | ≤ 0.25 |
| EGKR | ≤ 0.25 |
| RATA | ≤ 0.25 |
| QQGH | 6 |
| EHGM | ≤ 0.25 |
| CRSP | ≤ 0.25 |
| NSVI | ≤ 0.25 |
| WTFG | ≤ 0.25 |
| FGWS | ≤ 0.25 |
| EERD | ≤ 0.25 |
| TCWG | ≤ 0.25 |
| DPKT | ≤ 0.25 |
| QVYP | ≤ 0.25 |
| YGLQ | 4.74 |
| RQHW | ≤ 0.25 |
| PFIF | ≤ 0.25 |
| MCHH | ≤ 0.25 |
| SMEF | ≤ 0.25 |
| REAG | ≤ 0.25 |
| RYKI | ≤ 0.25 |
| LAFG | ≤ 0.25 |

| Variant | enrichment ratio |
| --- | --- |
| DAWG | ≤ 0.25 |
| AVRR | ≤ 0.25 |
| QSYV | 14.9 |
| NMQF | ≤ 0.25 |
| LTEI | ≤ 0.25 |
| PLAK | ≤ 0.25 |
| ALMC | ≤ 0.25 |
| AMDH | ≤ 0.25 |
| HKDE | ≤ 0.25 |
| NPST | ≤ 0.25 |
| WGKH | ≤ 0.25 |
| QITR | ≤ 0.25 |
| PAWY | ≤ 0.25 |
| GYRE | ≤ 0.25 |
| THHK | ≤ 0.25 |
| WYVV | ≤ 0.25 |
| TNEC | ≤ 0.25 |
| PNWE | ≤ 0.25 |
| HVCF | ≤ 0.25 |
| TKKM | ≤ 0.25 |
| WHYE | ≤ 0.25 |
| FKKS | ≤ 0.25 |
| EHQK | ≤ 0.25 |
| IEPV | ≤ 0.25 |
| YPWI | ≤ 0.25 |
| ELDA | ≤ 0.25 |

| Variant | enrichment ratio |
| --- | --- |
| PTSN | ≤ 0.25 |
| MHCC | ≤ 0.25 |
| QMAF | 0.276 |
| VDNI | ≤ 0.25 |
| AYTG | ≤ 0.25 |
| DDTN | ≤ 0.25 |
| GFVQ | ≤ 0.25 |
| HWHK | ≤ 0.25 |
| GDTP | ≤ 0.25 |
| MVCG | ≤ 0.25 |
| VGHL | ≤ 0.25 |
| LTDL | ≤ 0.25 |
| WSFK | ≤ 0.25 |
| MQIL | 1.4 |
| QSTG | ≤ 0.25 |
| RWLI | ≤ 0.25 |
| VNPH | ≤ 0.25 |
| KQFF | ≤ 0.25 |
| ECRK | ≤ 0.25 |
| DREL | ≤ 0.25 |
| WFVQ | ≤ 0.25 |
| NWSN | ≤ 0.25 |
| QYAD | ≤ 0.25 |
| EVHK | ≤ 0.25 |
| TSSQ | 11.8 |
| GLWR | ≤ 0.25 |

| Variant | enrichment ratio |
| --- | --- |
| PWSC | ≤ 0.25 |
| ERAE | ≤ 0.25 |
| WFGV | ≤ 0.25 |
| FYDV | ≤ 0.25 |
| VRWQ | ≤ 0.25 |
| EFSW | ≤ 0.25 |
| RPSF | ≤ 0.25 |
| MDWC | ≤ 0.25 |
| SFRF | ≤ 0.25 |
| IQWT | ≤ 0.25 |
| AGTE | ≤ 0.25 |
| GPQV | ≤ 0.25 |
| QNIR | ≤ 0.25 |
| LFTN | ≤ 0.25 |
| RSNC | ≤ 0.25 |
| QGPT | ≤ 0.25 |
| GHID | ≤ 0.25 |
| FHSP | ≤ 0.25 |
| DAAM | ≤ 0.25 |
| RRQC | ≤ 0.25 |
| MKYY | ≤ 0.25 |
| ETRH | ≤ 0.25 |
| ANMY | ≤ 0.25 |
| HFWQ | ≤ 0.25 |
| DDIC | ≤ 0.25 |
| DHEA | ≤ 0.25 |

| Variant | enrichment ratio |
| --- | --- |
| DTHS | ≤ 0.25 |
| NVMP | ≤ 0.25 |
| DVGT | ≤ 0.25 |
| RAPS | ≤ 0.25 |
| WKTM | ≤ 0.25 |
| RDQP | ≤ 0.25 |
| LKVS | ≤ 0.25 |
| WQKW | ≤ 0.25 |
| FYTR | ≤ 0.25 |
| FFYQ | ≤ 0.25 |
| VLTP | ≤ 0.25 |
| PDAE | ≤ 0.25 |
| ESDR | ≤ 0.25 |
| VDMD | ≤ 0.25 |
| FYKK | ≤ 0.25 |
| LAWI | ≤ 0.25 |
| YDPP | ≤ 0.25 |
| YWER | ≤ 0.25 |
| RRPI | ≤ 0.25 |
| PGAS | ≤ 0.25 |
| GPND | ≤ 0.25 |
| EEAH | ≤ 0.25 |
| VQNE | ≤ 0.25 |
